Data on three molecules can be found in patent publication US20230348569A1.

Assay [1] concerns the target T1, SARS-COV-2-S RBD extracellular domain expressed with a C-terminal myc-myc-hexahistidine (SARS-COV-2 RBD-MMH) (SARS-CoV-2). The note with it: remark: other sources report otherwise.
Assay [2] deals with T1, SARS-COV-2-S RBD extracellular domain …. The conditions noted are these: remark: other sources report otherwise. This is another data set of the same source.

As a reminder, the t½ is the time in which the quantity being followed falls by half. Low values mean rapid decline, high ones slow decline.

“And” between values parts separate entries of the source, which are not always exact repeats. Equal values may be shown once. Read-outs that look alike come from different tables or passages of the source.

B1: mAb10915 (antibody)
heavy: EVQLVESGGGLVQPGGSLRLSCAASGFTVSSNYMNWVRQAPGKGLEWVSVIYSGGSTFYADSVKGRFTISRHNSKNTLYLQMNSLRPEDTAVYYCARDLGGYFDYWGQGTLVTVSS[human IgG1 constant region left out here]
light: [about 100 residues left out here][about 120 residues left out here]
On to B1, for which the t½ in assay [1] was 15.5 min and 5.6 min; in assay [2], 7.7 min.

B2: mAb10939 (antibody)
heavy: EVQLVESGGGLVQPGGSLRLSCAASGLTVSSNYMNWVRQVPGKGLEWVSVIYSGGSKFYVDSVKGRFTISRHNSKNTLYLQMNSLRPEDTAVYYCTRDAQYYGMDVWGQGTTVTVSS[human IgG1 constant region left out here]
light: DIQMTQSPSSLSASVGDRVTITCRASQSISTYLHWYQQKPGEAPKLLIYAASSLQSGVPSRFSGSGSGTDFTLTISSLQPEDFATYYCQQSYSTPPEIFGQGTKLEIKRTVAAPSVFIFPPSDEQLKSGTASVVCLLNNFYPREAKVQWKVDNALQSGNSQESVTEQDSKDSTYSLSSTLTLSKADYEKHKVYACEVTHQGLSSPVTKSFNRGEC
In turn, B2 registered a t½ in assay [1] of 1 min.

B3: mAb10982 (antibody)
heavy: EVQLVESGGGLVQPGGSLRLSCAASGLTVSSNYMSWVRQAPGKGLEWVSVIYSGGTTYYADSVKGRFTISRHNSKNTLSLQMNSLRAEDTAVYYCARGEGANYYGMDVWGQGTTVTVSS[human IgG1 constant region left out here]
light: QSVLTQPPSVSGAPGQRVTISCTGSSSNIGTGYDVHWYQQLPGTAPKLLIYGNSNRPSGVPDRFSGSKSGTSASLAITGLQAEDEADYYCQSYDSSLSGYVVFGGGTKLTVLGQPKAAPSVTLFPPSSEELQANKATLVCLISDFYPGAVTVAWKADSSPVKAGVETTTPSKQSNNKYAASSYLSLTPEQWKSHRSYSCQVTHEGSTVEKTVAPTECS
As for B3, the t½ stood at 1.8 min in assay [1] and 1.5 min in assay [2].
